# The supplement of paper PMC11369174, “Proteome-scale characterisation of motif-based interactome rewiring by disease mutations” (Molecular Systems Biology, 2024)
# The other results are listed elsewhere or left out. Values come from read counts of a selection and are noisy.
# T1: AP2B1_adaptin__P63010_700_937
# T1 chain: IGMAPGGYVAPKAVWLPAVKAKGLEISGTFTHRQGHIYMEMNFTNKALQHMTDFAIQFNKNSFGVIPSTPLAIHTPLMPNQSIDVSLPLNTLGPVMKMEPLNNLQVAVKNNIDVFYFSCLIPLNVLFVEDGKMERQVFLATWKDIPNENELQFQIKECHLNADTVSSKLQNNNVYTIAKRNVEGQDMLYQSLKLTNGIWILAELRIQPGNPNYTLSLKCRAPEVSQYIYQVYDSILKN
# T2: AURKA_Pkinase-merged__O14965_125_391
# T2 chain: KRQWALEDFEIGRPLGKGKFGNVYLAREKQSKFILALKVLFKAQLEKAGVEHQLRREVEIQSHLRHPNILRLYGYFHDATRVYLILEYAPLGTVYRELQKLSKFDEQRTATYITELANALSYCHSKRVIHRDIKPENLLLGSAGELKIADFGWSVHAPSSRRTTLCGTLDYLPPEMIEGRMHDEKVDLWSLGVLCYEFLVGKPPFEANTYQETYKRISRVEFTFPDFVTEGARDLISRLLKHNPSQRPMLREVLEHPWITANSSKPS
# T3: CSK21_Pkinase__P68400_1_335
# T3 chain: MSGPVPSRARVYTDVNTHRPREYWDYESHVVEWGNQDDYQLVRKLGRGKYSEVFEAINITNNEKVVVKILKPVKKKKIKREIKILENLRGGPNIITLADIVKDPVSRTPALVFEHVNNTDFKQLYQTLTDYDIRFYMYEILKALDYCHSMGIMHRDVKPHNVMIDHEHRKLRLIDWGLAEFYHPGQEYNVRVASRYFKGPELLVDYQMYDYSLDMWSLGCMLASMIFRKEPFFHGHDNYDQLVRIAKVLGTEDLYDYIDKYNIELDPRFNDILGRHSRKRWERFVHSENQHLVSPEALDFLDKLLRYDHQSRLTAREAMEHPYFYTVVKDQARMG
# T4: PDZK1_PDZ_2_Q5T2W1_132_224
# T4 chain: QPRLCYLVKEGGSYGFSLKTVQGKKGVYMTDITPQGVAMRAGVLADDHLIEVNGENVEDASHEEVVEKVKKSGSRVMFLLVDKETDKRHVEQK
# T5: SHC_PH__P29353_149_317
# T5 chain: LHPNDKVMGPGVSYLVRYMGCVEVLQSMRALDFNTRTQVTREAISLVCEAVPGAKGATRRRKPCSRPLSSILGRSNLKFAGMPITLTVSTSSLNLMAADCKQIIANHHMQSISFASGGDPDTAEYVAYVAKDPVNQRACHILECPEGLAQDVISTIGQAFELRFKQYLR
# T6: AP2_Mu__Q96CW1_160_435
# T6 chain: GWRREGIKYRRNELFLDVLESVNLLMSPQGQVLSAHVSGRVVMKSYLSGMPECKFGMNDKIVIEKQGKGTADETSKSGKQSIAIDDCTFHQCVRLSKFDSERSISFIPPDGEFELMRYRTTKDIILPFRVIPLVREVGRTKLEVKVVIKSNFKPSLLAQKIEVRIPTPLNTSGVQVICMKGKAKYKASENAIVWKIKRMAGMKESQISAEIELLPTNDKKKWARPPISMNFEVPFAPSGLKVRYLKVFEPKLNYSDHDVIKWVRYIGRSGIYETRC
# T7: PEX14_Pex14__O75381_16_84
# T7 chain: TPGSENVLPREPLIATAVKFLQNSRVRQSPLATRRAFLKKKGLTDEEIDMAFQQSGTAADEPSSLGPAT
# T8: DOK1_PTB__Q99704_151_256
# T8 chain: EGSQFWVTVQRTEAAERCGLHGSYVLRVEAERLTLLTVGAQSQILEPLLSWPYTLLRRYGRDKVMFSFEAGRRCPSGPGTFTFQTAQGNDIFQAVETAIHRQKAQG
# Molecular target: T1, AP2B1_adaptin__P63010_700_937
# Assay: mean normalised NGS count of phage-displayed peptide after selection on bait (% of reads); baits are purified protein domains named by gene / domain / UniProt id / residues; peptides come from disordered regions of human proteins; higher = stronger enrichment / binding
# Conditions: replicate selections in which the peptide was seen: 6
row,Binder,mean normalised NGS count
1,WTFQPFTNHSVDGPQR [SSUH2 127-142 wt],0.135
2,YWMPKWINATDPSAAT [ASNS 536-551 mut P08243.R550C],0.111
3,DEVTAFLGEWWPFQRL [SLC22A5 5-20 mut O76082.G15W],6.7
4,DLTQVETFGFWGEALS [PMS2 97-112 mut P54278.R107W],49.8
5,GVSERWQRLTFPAVSV [GNPTAB 780-795 mut Q3T906.L785W],0.179
6,ASENFLIAAVEAWGFQ [TBC1D24 539-554 wt],2.28
7,PYPKWNSVFDQLTQVV [MAP2K4 306-321 wt],0.502
8,NAQKHSPFSLSAWFWL [POMT1 175-190 mut Q9Y6A1.W186C],5.15

# Molecular target: T2, AURKA_Pkinase-merged__O14965_125_391
# Assay: as above
# Conditions: replicate selections in which the peptide was seen: 6
row,Binder,mean normalised NGS count
1,YYWNADTDLVSWLSSH [PQBP1 64-79 mut O60828.P78S],4.09
2,EEWSQWLGGSSWPGYV [HSPB1 40-55 wt],2.12
3,EEWSQWLGGSSWPDYV [HSPB1 40-55 mut P04792.G53D],48

# Molecular target: T3, CSK21_Pkinase__P68400_1_335
# Assay: as above
# Conditions: replicate selections in which the peptide was seen: 3
row,Binder,mean normalised NGS count
1,YYWNADTDLVSWLSSH [PQBP1 64-79 mut O60828.P78S],11.2
2,EEWSQWLGGSSWPDYV [HSPB1 40-55 mut P04792.G53D],0.223

# Molecular target: MK08_Pkinase__P45983_1_363
# Assay: as above
# Conditions: replicate selections in which the peptide was seen: 6
# Sequence of MK08_Pkinase__P45983_1_363 (chain, as listed by the source): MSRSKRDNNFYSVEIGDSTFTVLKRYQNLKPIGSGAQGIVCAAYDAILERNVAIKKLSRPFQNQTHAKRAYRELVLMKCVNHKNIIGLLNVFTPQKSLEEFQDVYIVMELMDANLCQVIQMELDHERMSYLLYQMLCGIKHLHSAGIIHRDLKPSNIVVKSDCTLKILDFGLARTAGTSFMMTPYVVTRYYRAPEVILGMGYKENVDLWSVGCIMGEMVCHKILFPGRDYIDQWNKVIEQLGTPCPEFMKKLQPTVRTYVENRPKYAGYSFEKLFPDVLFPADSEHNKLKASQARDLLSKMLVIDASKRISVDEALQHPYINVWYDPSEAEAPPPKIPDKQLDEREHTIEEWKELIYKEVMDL
row,Binder,mean normalised NGS count
1,YYWNADTDLVSWLSSH [PQBP1 64-79 mut O60828.P78S],38.2

# Molecular target: T4, PDZK1_PDZ_2_Q5T2W1_132_224
# Assay: as above
# Conditions: replicate selections in which the peptide was seen: 6
row,Binder,mean normalised NGS count
1,YYWNADTDLVSWLSSH [PQBP1 64-79 mut O60828.P78S],49.1

# Molecular target: T5, SHC_PH__P29353_149_317
# Assay: as above
# Conditions: replicate selections in which the peptide was seen: 6
row,Binder,mean normalised NGS count
1,YYWNADTDLVSWLSSH [PQBP1 64-79 mut O60828.P78S],37.9

# Molecular target: T6, AP2_Mu__Q96CW1_160_435
# Assay: as above
# Conditions: replicate selections in which the peptide was seen: 5
row,Binder,mean normalised NGS count
1,ATYRPLLEGEDAHLSS [KRT14 413-428 mut P02533.R417P],0.871
2,YVKINDLEHSVHHATI [AHI1 774-789 mut Q8N157.W787C],0.0973
3,ATYRPLLEGEDAHLSS [KRT16 413-428 mut P02533.R417P],0.871
4,YARFGEEHSANPFHWD [ABCA4 1858-1873 wt],0.0247

# Molecular target: BRD4_NET__O60885_601_683
# Assay: as above
# Conditions: replicate selections in which the peptide was seen: 2
# Sequence of BRD4_NET__O60885_601_683 (chain, as listed by the source): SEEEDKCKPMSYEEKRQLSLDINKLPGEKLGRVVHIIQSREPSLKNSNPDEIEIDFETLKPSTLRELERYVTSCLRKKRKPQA
row,Binder,mean normalised NGS count
1,WLFHTQQLLQMQLKVL [KMT2D 3513-3528 wt],0.118
2,AYVFTLLVSLYLHDNT [MT-ATP6 211-226 wt],0.212
3,LWWGLIMLTTIGYGDK [KCNQ2 268-283 mut O43526.T274M],3.45
4,SFPIVFRVLAGEWIET [SCN1A 940-955 mut P35498.L942P],0.0105
5,SFPIVFRVLAGEWIET [SCN8A 940-955 mut P35498.L942P],0.0105
6,SFPIVFRVLAGEWIET [SCN3A 940-955 mut P35498.L942P],0.0105
7,SFPIVFRVLAGEWIET [SCN9A 940-955 mut P35498.L942P],0.0105
8,IPLLRISSADQNISEK [BRCA2 411-426 mut P51587.H415R],0.012
9,SFPIVFRVLAGEWIET [SCN2A 940-955 mut P35498.L942P],0.0105

# Molecular target: T6, AP2_Mu__Q96CW1_160_435
# Assay: as above
# Conditions: replicate selections in which the peptide was seen: 6
row,Binder,mean normalised NGS count
1,YERFTNSETAEHIAQD [BTK 598-613 mut Q06187.G613D],15.4
2,YARFGEEHSANLFHWD [ABCA4 1858-1873 mut P78363.P1869L],0.162
3,YIELGSDSSEDTVNKA [BRCA1 179-194 wt],0.625
4,YKLLEEKSQNTEDLAE [TRPC6 896-911 mut Q9Y210.E897K],0.028
5,YHKLLEGEEERLRLSP [LMNA 376-391 mut P02545.R377H],0.257
6,YIELGSDYSEDTVNKA [BRCA1 179-194 mut P38398.S186Y],5.53
7,YHILSDPELSFLDAHK [CHD7 2114-2129 mut Q9P2D1.N2118S],0.152
8,YERFINSETAEHIAQG [BTK 598-613 mut Q06187.T602I],16.1
9,YELLEEKSQNTEDLAE [TRPC6 896-911 wt],0.868
10,EADGYQRLKDEVVRAQ [SMC1A 205-220 mut Q14683.R208G],0.149
11,YEQLFSSTQGEISEPS [SLX4 983-998 wt],0.102
12,YHILNDPELSFLDAHK [CHD7 2114-2129 wt],1.01
13,YERFTNSETDEHIAQG [BTK 598-613 mut Q06187.A607D],13.8

# Same assay, conditions: replicate selections in which the peptide was seen: 3
row,Binder,mean normalised NGS count
1,AKGYQLLEEEKIVSHY [GJA8 263-278 wt],0.0832
2,SANNQRYAFMPLIDDS [TMEM87B 454-469 wt],0.128
3,YYPLTGDTRLELELRP [APOB 992-1007 wt],0.0217
4,QARYNQLQEQRDTMVT [TSC1 758-773 wt],0.0799
5,SADNQRYAFMPLIDDS [TMEM87B 454-469 mut Q96K49.N456D],0.0372
6,VSHYFPLTEVGMVETS [GJA8 275-290 wt],0.0171

# Molecular target: T7, PEX14_Pex14__O75381_16_84
# Assay: as above
# Conditions: replicate selections in which the peptide was seen: 6
row,Binder,mean normalised NGS count
1,DEVTAFLGEWWPFQRL [SLC22A5 5-20 mut O76082.G15W],2.79

# Molecular target: T2, AURKA_Pkinase-merged__O14965_125_391
# Assay: as above
# Conditions: replicate selections in which the peptide was seen: 4
row,Binder,mean normalised NGS count
1,DLWSSFLTLRDHVPEL [MYCN 396-411 mut P04198.R398W],0.328

# Molecular target: MK08_Pkinase__P45983_1_363
# Assay: as above
# Conditions: replicate selections in which the peptide was seen: 3
row,Binder,mean normalised NGS count
1,DLWSSFLTLRDHVPEL [MYCN 396-411 mut P04198.R398W],0.0667

# Molecular target: T6, AP2_Mu__Q96CW1_160_435
# Assay: as above
# Conditions: replicate selections in which the peptide was seen: 2
row,Binder,mean normalised NGS count
1,EEWSQWLGGSSWPGYV [HSPB1 40-55 wt],0.734
2,EEWSQWLGGSSWPDYV [HSPB1 40-55 mut P04792.G53D],6.79
3,AKGYQLLEEEKIVFHY [GJA8 263-278 mut P48165.S276F],0.0495

# Molecular target: MK08_Pkinase__P45983_1_363
# Assay: as above
# Conditions: replicate selections in which the peptide was seen: 2
row,Binder,mean normalised NGS count
1,EEWSQWLGGSSWPGYV [HSPB1 40-55 wt],0.0528
2,EEWSQWLGGSSWPDYV [HSPB1 40-55 mut P04792.G53D],0.341

# Molecular target: T1, AP2B1_adaptin__P63010_700_937
# Assay: as above
# Conditions: replicate selections in which the peptide was seen: 5
row,Binder,mean normalised NGS count
1,DWAFAQHELLEKQGID [KIF1B 618-633 mut Q12756.R624H],0.299
2,QGLQGAQMGQPWFFFP [GAA 115-130 mut P10253.C127F],0.0668
3,LLSDDSNFAQFELTTF [MSH2 279-294 mut P43246.G287A],0.183
4,DWAFAQHELLEKQGID [KIF1A 618-633 mut Q12756.R624H],0.299

# Molecular target: T6, AP2_Mu__Q96CW1_160_435
# Assay: as above
# Conditions: replicate selections in which the peptide was seen: 4
row,Binder,mean normalised NGS count
1,WSYLEEEEGVSISVYR [TTN 10422-10437 mut Q8WZ42.S10425L],0.12
2,KARYNQLQEQRDTMVT [TSC1 758-773 mut Q92574.Q758K],0.242
3,QARYSQLQEQRDTMVT [TSC1 758-773 mut Q92574.N762S],0.184

# Molecular target: T8, DOK1_PTB__Q99704_151_256
# Assay: as above
# Conditions: replicate selections in which the peptide was seen: 4
row,Binder,mean normalised NGS count
1,WSYLEEEEGVSISVYR [TTN 10422-10437 mut Q8WZ42.S10425L],0.0939

# Molecular target: T1, AP2B1_adaptin__P63010_700_937
# Assay: as above
# Conditions: replicate selections in which the peptide was seen: 4
row,Binder,mean normalised NGS count
1,AETPAEPVDWAFAQRE [KIF1A 610-625 wt],0.0239

# Molecular target: T7, PEX14_Pex14__O75381_16_84
# Assay: as above
# Conditions: replicate selections in which the peptide was seen: 5
row,Binder,mean normalised NGS count
1,PYPKWNSVFDQLTQVV [MAP2K4 306-321 wt],3.18

# Molecular target: T3, CSK21_Pkinase__P68400_1_335
# Assay: as above
# Conditions: replicate selections in which the peptide was seen: 2
row,Binder,mean normalised NGS count
1,NAQKHSPFSLSAWFWL [POMT1 175-190 mut Q9Y6A1.W186C],3.26
